Target: hepatitis C virus RNA dependent polymerase (NS5B) (Hepacivirus hominis (Hepatitis C virus), UniProt P26663)
Assay: Inhibition of NS5B RNA dependent RNA polymerase activity (SPA, UMP-[5,6 3H] incorporation)
[1] = IC50 μM, first compound table (printed title TABLE 10; Table 1)

O=C(NC(Cc1ccc(O)c(C(=O)O)c1)C(=O)O)c1ccc2c(c1)nc(-c1ccoc1)n2C1CCCCC1 (racemic) [Entry 16058, 5-(2-Carboxy-2-{[1-(1-cyclohexyl-2-furan-3-yl-1H-benzimidazol-5-yl)-methanoyl]-amino}-ethyl)-2-hydroxy-benzoic Acid]
IC50 (IC50, Table 16): < 1 µM

O=C(O)COc1ccc2c(c1)c(CCNC(=O)c1ccc3c(c1)nc(-c1ccoc1)n3C1CCCCC1)cn2CC(=O)O [Entry 11012]
IC50 (IC50, Table 11): < 1 µM

CN(C(=O)c1ccc2c(c1)nc(-c1ccoc1)n2C1CCCCC1)[C@@H](Cc1c[nH]c2ccccc12)C(=O)O [Entry 10063]
IC50 (IC50 μM, Table 10): 1 to 5 µM

O=C(O)COc1ccc2[nH]cc(C[C@H](NC(=O)c3ccc4c(c3)nc(-c3ccc(C(=O)NCCNC(=S)Nc5ccc(-c6c7ccc(=O)cc-7oc7cc(O)ccc67)c(C(=O)O)c5)cc3)n4C3CCCCC3)C(=O)O)c2c1 [Entry 12021, 5-[3-(2-{[1-(4-{5-[(S)-1-Carboxy-2-(5-carboxymethoxy-1H-indol-3-yl)-ethylcarbamoyl]-1-cyclohexyl-1H-benzimidazol-2-yl}-phenyl)-methanoyl]-amino}-ethyl)-thioureido]-2-(6-hydroxy-3-oxo-3H-xanthen-9-yl)-benzoic Acid]
IC50 (IC50, Table 12): < 1 µM

COc1ccc([C@@H](C)NC(=O)c2ccc3c(c2)nc(-c2ccccn2)n3C2CCCCC2)cc1OC [Entry 2042, 1-Cyclohexyl-2-pyridin-2-yl-1h-benzoimidazole-5-carboxylic Acid [(R)-1(3,4-dimethoxyphenyl)ethyl]amide]
IC50 (IC50 μM, Table 2): 1 to 5 µM

O=C(N[C@@H](Cc1ccc(OP(=O)(O)O)cc1)C(=O)O)c1ccc2c(c1)nc(-c1ccoc1)n2C1CCCCC1 [Entry 16050]
IC50 (IC50, Table 16): < 1 µM

O=C(NCc1nc2ccccc2[nH]1)c1ccc2c(c1)nc(-c1ccccn1)n2C1CCCCC1 [Entry 2074]
IC50 (IC50 μM, Table 2): 5 to 10 µM

O=C(N[C@@H](Cc1c[nH]c2ccc(O)cc12)c1cscn1)c1ccc2c(c1)nc(-c1ccccc1)n2C1CCCCC1 [Entry 15002]
IC50 (IC50, Table 15): < 1 µM

O=C(O)c1ccc(CN[C@H]2CC[C@H](NC(=O)c3ccc4c(c3)nc(-c3ccoc3)n4C3CCCCC3)CC2)cc1 [Entry 1274]
IC50 [1]: 10 to 25 µM

Cc1c(C(=O)N[C@@H](Cc2c[nH]c3ccc(OCC(=O)O)cc23)C(=O)O)ccc2c1nc(-c1ccoc1)n2C1CCCCC1 [Entry 5008, (S)-3-(5-Carboxymethoxy-1H-indol-3-yl)-2-{[1-(1-cyclohexyl-2-furan-3-yl-4-methyl-1H-benzimidazol-5-yl)-methanoyl]-amino}-propionic acid]
IC50 (IC50 μM, Table 5): < 1 µM

O=C(N[C@@H](Cc1c[nH]c2ccc(O)cc12)C(=O)O)c1ccc2c(c1)nc(-c1nccc3ccccc13)n2C1CCCCC1 [Entry 2117]
IC50 (IC50 μM, Table 2): 1 to 5 µM

O=C(NC1CCNC1)c1ccc2c(c1)nc(-c1ccoc1)n2C1CCCCC1 (stereo not drawn) [Entry 1180]
IC50 [1]: 5 to 10 µM

COC(=O)C(NC(=O)c1ccc2c(c1)nc(-c1ccccn1)n2C1CCCCC1)c1ccc(OC)c(OC)c1 (stereo not drawn) [Entry 2047]
IC50 (IC50 μM, Table 2): 5 to 10 µM

CC[C@H](C)[C@@H](CO)n1c(-c2ccoc2)nc2cc(C(=O)N[C@@H](Cc3c[nH]c4ccc(O)cc34)C(=O)O)ccc21 [Entry 3029]
IC50 (IC50 μM, Table 3): 1 to 5 µM

O=C(N[C@@H](Cc1c[nH]c2ccc(O)cc12)C(=O)O)c1ccc2c(c1)nc(-c1ccc(S(=O)(=O)O)o1)n2C1CCCCC1 [Entry 2107]
IC50 (IC50 μM, Table 2): 1 to 5 µM

O=C(N[C@H](C(=O)O)[C@@H](O)c1ccc(-c2nnn[nH]2)cc1)c1ccc2c(c1)nc(-c1ccoc1)n2C1CCCCC1 [Entry 18002]
IC50 (IC50, Table 18): < 1 µM

O=C(NC1CCN(C(=O)Nc2ccccc2C(=O)O)C1)c1ccc2c(c1)nc(-c1ccoc1)n2C1CCCCC1 (stereo not drawn) [Entry 1196]
IC50 [1]: 1 to 5 µM

O=C(O)c1ccc(CN2CCC(CNC(=O)c3ccc4c(c3)nc(-c3ccoc3)n4C3CCCCC3)CC2)cc1 [Entry 1273]
IC50 [1]: 10 to 25 µM

COc1ccc(CCNC(=O)c2ccc3c(c2)nc(-c2ccncc2)n3C2CCCCC2)cc1OC [Entry 2003]
IC50 (IC50 μM, Table 2): 10 to 25 µM

O=C(O)c1ccc(CN2CCC(NC(=O)c3ccc4c(c3)nc(-c3ccoc3)n4C3CCCCC3)C2)cc1 (stereo not drawn) [Entry 1272]
IC50 [1]: 10 to 25 µM

O=C(NC(Cc1ccc2cc(O)ccc2c1)C(=O)O)c1ccc2c(c1)nc(-c1ccoc1)n2C1CCCCC1 (racemic) [Entry 21001, 2-{[1-(1-Cyclohexyl-2-furan-3-yl-1H-benzimidazol-5-yl)-methanoyl]-amino}-3-(6-hydroxy-naphthalen-2-yl)-propionic Acid]
IC50 (IC50, Table 21): < 1 µM

O=C(O)c1ccc2[nH]cc(C[C@H](NC(=O)c3ccc4c(c3)nc(-c3ccoc3)n4C3CCCCC3)C(=O)O)c2c1 [Entry 11018, 3-((S)-2-Carboxy-2-{[1-(1-cyclohexyl-2-furan-3-yl-1H-benzoimidazol-5-yl)-methanoyl]-amino}-ethyl)-1H-indole-5-carboxylic Acid]
IC50 (IC50, Table 11): < 1 µM

CN(C)c1nc([C@H](Cc2ccc(O)cc2)NC(=O)c2ccc3c(c2)nc(-c2ccoc2)n3C2CCCCC2)cs1 [Entry 1241, 1-Cyclohexyl-2-furan-3-yl-1H-benzimidazole-5-carboxylic Acid [(S)-1-(2-Dimethylamino-thiazol-4-yl)-2-(4-hydroxy-phenyl)-ethyl]-amide]
IC50 [1]: 1 to 5 µM

CCOC(=O)CCNC(=O)NC1CCCC(NC(=O)c2ccc3c(c2)nc(-c2ccoc2)n3C2CCCCC2)C1 (stereo not drawn) [Entry 1214]
IC50 [1]: 10 to 25 µM

COc1ccc(CNC(=O)c2ccc3c(c2)nc(-c2ccccn2)n3C2CCCCC2)cc1OC [Entry 2075]
IC50 (IC50 μM, Table 2): 1 to 5 µM

COc1ccc(C(CC(C)C)NC(=O)c2ccc3c(c2)nc(-c2ccccn2)n3C2CCCCC2)cc1OC (stereo not drawn) [Entry 2051]
IC50 (IC50 μM, Table 2): 5 to 10 µM

O=C(O)c1ccc2c(c1)nc(-c1ccsc1)n2C1CCCCC1 [Entry 7023]
IC50 (IC50 μM, Table 7): 10 to 25 µM

COc1ccc(C(NC(=O)c2ccc3c(c2)nc(-c2ccc(O)c(C(=O)O)c2)n3C2CCCCC2)C(=O)O)cc1OC (stereo not drawn) [Entry 2082]
IC50 (IC50 μM, Table 2): 5 to 10 µM

O=C(NCC1CCN(Cc2ccccc2C(=O)O)CC1)c1ccc2c(c1)nc(-c1ccoc1)n2C1CCCCC1 [Entry 1267]
IC50 [1]: 10 to 25 µM

NC(=O)C(=O)Nc1ccc2[nH]cc(C[C@H](NC(=O)c3ccc4c(c3)nc(-c3ccoc3)n4C3CCCCC3)C(N)=O)c2c1 [Entry 13009, N-[3-((S)-2-Carbamoyl-2-{[1-(1-cyclohexyl-2-furan-3-yl-1H-benzimidazol-5-yl)-methanoyl]-amino}-ethyl)-1H-indol-5-yl]-oxalamide]
IC50 (IC50, Table 13): < 1 µM

CC(C)[C@H](Cc1ccc(O)cc1)NC(=O)c1ccc2c(c1)nc(-c1ccoc1)n2C1CCCCC1 [Entry 1089]
IC50 [1]: 1 to 5 µM

O=C(N[C@@H](C(=O)O)c1ccccc1)c1ccc2c(c1)nc(-c1ccccn1)n2C1CCCCC1 [Entry 2014]
IC50 (IC50 μM, Table 2): 10 to 25 µM

Nc1nc([C@H](Cc2ccc(OCC(=O)O)cc2)NC(=O)c2ccc3c(c2)nc(-c2ccoc2)n3C2CCCCC2)cs1 [Entry 19002, [4-((S)-2-(2-Amino-thiazol-4-yl)-2-{[1-(1-cyclohexyl-2-furan-3-yl-1H-benzimidazol-5-yl)-methanoyl]-amino}-ethyl)-phenoxy]-acetic Acid]
IC50 (IC50, Table 19): < 1 µM

N#Cc1ccccc1-c1nc2cc(C(=O)N[C@@H](Cc3c[nH]c4ccc(O)cc34)C(=O)O)ccc2n1C1CCCCC1 [Entry 2091]
IC50 (IC50 μM, Table 2): 1 to 5 µM

O=C(O)c1ccc(-c2nc3cc(C(=O)N[C@@H](Cc4c[nH]c5ccc(O)cc45)C(=O)O)ccc3n2C2CCCCC2)cc1 [Entry 2087]
IC50 (IC50 μM, Table 2): 1 to 5 µM

O=C(O)CCc1ccc(C[C@H](NC(=O)c2ccc3c(c2)nc(-c2ccoc2)n3C2CCCCC2)C(=O)O)cc1 [Entry 16038]
IC50 (IC50, Table 16): < 1 µM

O=C(O)COc1ccc(C[C@H](NC(=O)c2ccc3c(c2)nc(-c2ccoc2)n3C2CCCCC2)C(=O)O)cc1 [Entry 16011, (S)-3-(4-Carboxymethoxyphenyl)-2-{[1-(1-cyclohexyl-2-furan-3-yl-1H-benzoimidazol-5-yl)methanoyl]amino}propionic Acid]
IC50 (IC50, Table 16): < 1 µM

Cc1ccc(-c2nc3cc(C(=O)O)ccc3n2C2CCCCC2)s1 [Entry 7010]
IC50 (IC50 μM, Table 7): 10 to 25 µM

O=C(N[C@@H](Cc1ccc(O)c([N+](=O)[O-])c1)C(=O)O)c1ccc2c(c1)nc(-c1ccoc1)n2C1CCCCC1 [Entry 1019]
IC50 [1]: 1 to 5 µM

O=C(O)/C=C/c1ccc(CN2CCC(NC(=O)c3ccc4c(c3)nc(-c3ccoc3)n4C3CCCCC3)CC2)cc1 [Entry 1281]
IC50 [1]: 10 to 25 µM

O=C(O)CC[C@H](NC(=O)c1ccc2c(c1)nc(-c1ccccn1)n2C1CCCCC1)C(=O)O [Entry 2054]
IC50 (IC50 μM, Table 2): 5 to 10 µM

COC(=O)[C@H](Cc1ccc(C(N)=O)cc1)NC(=O)c1ccc2c(c1)nc(-c1ccoc1)n2C1CCCCC1 [Entry 1086]
IC50 [1]: 1 to 5 µM

COC(=O)[C@H](CCc1ccc(OCC(=O)O)cc1)NC(=O)c1ccc2c(c1)nc(-c1ccoc1)n2C1CCCCC1 [Entry 1033]
IC50 [1]: 1 to 5 µM

O=C(N[C@@H](Cc1c[nH]c2ccc(O)cc12)C(=O)NCC(O)CO)c1ccc2c(c1)nc(-c1ccoc1)n2C1CCCCC1 (mixture of isomers) [Entry 13022, 1-Cyclohexyl-2-furan-3-yl-1H-benzimidazole-5-carboxylic Acid [(S)-1-(2(RS),3-Dihydroxy-propylcarbamoyl)-2-(5-hydroxy-1H-indol-3-yl)-ethyl]-amide]
IC50 (IC50, Table 13): < 1 µM

Cc1cccc(-c2nc3cc(C(=O)N[C@@H](Cc4c[nH]c5ccc(O)cc45)C(=O)O)ccc3n2C2CCCCC2)n1 [Entry 2122]
IC50 (IC50 μM, Table 2): 5 to 10 µM

O=C(O)COc1cccc(CC(NC(=O)c2ccc3c(c2)nc(-c2ccoc2)n3C2CCCCC2)C(=O)O)c1 (stereo not drawn) [Entry 16020]
IC50 (IC50, Table 16): < 1 µM

CN(C)c1cccc2c(S(=O)(=O)NCCNC(=O)COc3ccc(-c4nc5cc(C(=O)N[C@@H](Cc6c[nH]c7ccc(OCC(=O)O)cc67)C(=O)O)ccc5n4C4CCCCC4)cc3)cccc12 [Entry 2129, (S)-3-(5-Carboxymethoxy-1H-indol-3-yl)-2-({1-[1-cyclohexyl-2-(4-{[2-(5-dimethylamino-naphthalene-1-sulfonylamino)-ethylcarbamoyl]-methoxy}-phenyl)-1H-benzimidazol-5-yl]-methanoyl}-amino)-propionic Acid]
IC50 (IC50 μM, Table 2): 1 to 5 µM

O=C(O)C[C@H](NC(=O)c1ccc2c(c1)nc(-c1ccccn1)n2C1CCCCC1)C(=O)O [Entry 2055]
IC50 (IC50 μM, Table 2): 1 to 5 µM
